We go through 52 molecules from ChEMBL document CHEMBL4888484, “Replenishing the malaria drug discovery pipeline: Screening and hit evaluation of the MMV Hit Generation Library 1 (HGL1) against asexual blood stage Plasmodium falciparum ,using a nano luciferase reporter read-out” (2022).

As usually defined, the % Inhibition is the drop in the measured response relative to a control, in per cent.

Out of some 150,000 compounds screened, about 540 (0.36%) showed an effect of 50% or more. This is one part of the list.

The experiment has as its system Plasmodium falciparum. As to the kind of experiment: Primary screen in NF54 nanoGlo assay, in single point, at 2uM, 72h; a lower Z score goes with more inhibition. Format: functional, Erythrocyte. The note with it: timepoint 72 hour.
Regarding `COc1ccc(NS(=O)(=O)c2ccc(NC(=O)CN(c3ccc(F)cc3)S(C)(=O)=O)cc2)cc1`, the “% Inhibition” value came to 36% and the Z score was -1.14.
For `Cn1nc2c(c1-c1nc(COc3cccc(F)c3)nn1CCO)CCCC2`, in that order: -13% and 1.49.
In the case of `CCc1nc(C)ccc1OCc1nc(C2CC2)n[nH]1`, the “% Inhibition” value is 3% and the Z score was -0.45.
With `CCn1cc(OCC(=O)N(C)CC(F)(F)F)cn1`, the “% Inhibition” value is on record as -7% and the Z score was determined as 1.31.
Take `COC1(CNc2nc(C3CC3)nc3[nH]ccc23)CCOCC1`: the “% Inhibition” value is given as -2% and the Z score was determined as 0.42.
For the molecule `CCC(=O)N(CC(=O)N1CCc2sccc2C1COc1ccc(F)cc1)CC1CCCO1` (centres undefined), the “% Inhibition” value was -8% and the Z score is 0.82.
Regarding `COc1ccc(OC)c(S(=O)(=O)N2CC(=O)N3C[C@@H](OC)C[C@H]3C2)c1`, the “% Inhibition” value was -3% and the Z score amounted to 0.49.
In the case of `CC(C)(O)CC(=O)N1CCC2(CCN(Cc3ccccc3)CC2)CC1`, the “% Inhibition” value was determined as 21% and the Z score is -2.63.
`O=C(O)CCC(=O)N1Cc2nc[nH]c2C[C@H]1c1nc(-c2ccc(C(F)(F)F)cc2)no1`: the “% Inhibition” value was 7% and the Z score is given as -0.85.
On to `O=C(COc1ccccc1)N1CCC(F)(C(=O)NCc2ccccc2)CC1`, for which the “% Inhibition” value was -6% and the Z score was found to be 0.8.
Take `COc1ccc(-c2cn3c(n2)CO[C@@H](CNS(C)(=O)=O)C3)cc1`: the “% Inhibition” value was -8% and the Z score stood at 1.25.
The like results for `Cc1cc(-n2cnnc2)ncc1-c1ccnn1C` were, in that order, -8% and 1.08.
The like results for `COCCN(C(=O)c1cc(Cl)cc(Cl)c1O)[C@H]1CCOC1` were, in that order, -1% and 0.19.
Consider `O=C(N/C(=N/c1ccccc1)NC[C@H]1CCCO1)c1ccc(C(F)(F)F)cc1`, for which the “% Inhibition” value is reported as -20% and the Z score is 1.81.
Regarding `CC(C)N1C(=O)NC2(CCN(CC(O)c3cccc(F)c3)C2)C1=O` (centres undefined), the “% Inhibition” value is -9% and the Z score amounted to 0.95.
Regarding `CS(=O)(=O)c1ccc(NC(=O)N2CCC3CCCCC32)cc1F` (centres undefined), the “% Inhibition” value is on record as -6% and the Z score worked out at 1.19.
In the case of `CC[C@@H]1C(=O)NCCCN1C(=O)Cn1nc(C(F)F)cc1C1CC1`, the “% Inhibition” value was determined as 17% and the Z score is -2.1.
For the molecule `C[C@@H](CN1CCCC1)OC(=O)c1ccc(Cl)cc1Cl`, the “% Inhibition” value is listed as 28% and the Z score is listed as -3.19.
`Cc1ccc2c(NC(=O)Cc3ccccc3)c(C)ccc2n1`: the “% Inhibition” value was -6% and the Z score is 0.91.
For the molecule `C[C@@H](C(=O)Nc1nccs1)N(C)Cc1noc(-c2ccccc2)n1`, the “% Inhibition” value came to 0% and the Z score was -0.08.
Consider `CC(=O)Nc1ccc(C)cc1-c1nc2ccccc2n(CC(=O)Nc2ccc3c(c2)OCO3)c1=O`, for which the “% Inhibition” value is 13% and the Z score was -2.15.
For `CN1C(=O)[C@@H]2CCCCN2c2ccc(C(=O)NCCc3c[nH]c4ccccc34)cc21`, in that order: -1% and 0.08.
In the case of `CC1(C)CC(=O)N(Cc2cnn(-c3ccccc3)n2)C1=O`, the “% Inhibition” value is -12% and the Z score was found to be 1.61.
For `Cc1nn(C)cc1C(=O)NC1(C(F)F)CC1`, in that order: -19% and 1.84.
`COc1ccccc1CCC(=O)N(Cc1ccc(OC)c(OC(C)C)c1)C1CCCC1`: the “% Inhibition” value is -14% and the Z score amounted to 1.83.
`Cc1noc(CC(NC(=O)C(O)c2ccccc2)c2ccccc2)n1` (centres undefined): the “% Inhibition” value is on record as -1% and the Z score was found to be 0.16.
Consider `CCCOCC(=O)N1CCC(Cc2ncc[nH]2)CC1`, for which the “% Inhibition” value was -14% and the Z score is reported as 1.37.
The like results for `C[C@H](Nc1ccc2c(c1)OCCCO2)C(=O)N1CCCC1` were, in that order, -1% and 0.16.
For `Cc1noc(C2CCN(C(=O)c3c(C)ccn3C)CC2)n1`, the “% Inhibition” value was 2% and the Z score is recorded as -0.25.
For `O=C(N[C@H]1CCN(Cc2ccccn2)C[C@@H]1O)c1ccc(Cl)s1`, in that order: -9% and 1.71.
With `O=C(Cc1ccc(-c2ccccc2)cc1)N1CC(N2C(=O)CCC2=O)C1`, the “% Inhibition” value is -4% and the Z score came to 0.49.
On to `c1ccc2oc(CNc3cncc(-n4cccn4)n3)cc2c1`, for which the “% Inhibition” value was 2% and the Z score is reported as -0.26.
For `COCCc1ccc2oc(NCc3cnn(CC(C)C)c3)nc2c1`, in that order: -6% and 0.78.
On to `Cc1c(C)n(C[C@H](O)Cn2c(C(F)(F)F)nc3ccccc32)c2c(Cl)cccc12`, for which the “% Inhibition” value worked out at 38% and the Z score is recorded as -4.31.
For `CC(CC(C)C(=O)N1CCOCCN(C(=O)C(C)CC(C)C(=O)O)CCOCC1)C(=O)O` (centres undefined), the “% Inhibition” value is recorded as -8% and the Z score amounted to 1.02.
Consider `CN1CCCCCCN(C(=O)c2ccoc2)[C@H]2CCC[C@H]2C1=O`, for which the “% Inhibition” value was -7% and the Z score was found to be 0.96.
`CC1(C)[C@H]2CC=C(CN3CCC(=O)N(CCS(=O)(=O)c4ccccc4)CC3)[C@@H]1C2`: the “% Inhibition” value was found to be 1% and the Z score is -0.07.
The like results for `Cc1ccc(N2CCC[C@@]3(CCC(=O)N(CCc4c[nH]cn4)C3)C2)nn1` were, in that order, -11% and 1.98.
Take `O=C(NCc1noc(-c2ccco2)n1)c1ccc(Br)cc1`: the “% Inhibition” value came to 7% and the Z score is listed as -0.92.
With `Cc1ccc(N(C(=O)c2ccccc2)[C@H]2CCS(=O)(=O)C2)cc1C`, the “% Inhibition” value is 4% and the Z score is on record as -0.46.
Regarding `CCCCOc1ccccc1C(=O)N1C[C@@H]2NC(=O)c3ncccc3OCCn3cc(nn3)CO[C@H]2C1`, the “% Inhibition” value is recorded as -4% and the Z score worked out at 0.46.
In the case of `C1CCCC(NC2=NCCNC23CCOCC3)CC1`, the “% Inhibition” value is -11% and the Z score is 1.41.
With `COc1cc2c(cc1OC)/C(=N\c1ccc(C(C)=O)cc1)NC1(CCCC1)C2`, the “% Inhibition” value is reported as -8% and the Z score was 1.2.
For `COC[C@H]1NC(=O)CC[C@H]1C(=O)Nc1ccc(C)cc1`, the “% Inhibition” value is -22% and the Z score amounted to 2.57.
For `O=C1CC[C@H](C(=O)N2CCc3c(Br)cccc3C2)CN1`, the “% Inhibition” value is given as -5% and the Z score turned out to be 0.65.
The like results for `O=C(c1cccc2[nH]c(C(F)F)nc12)N(Cc1ccncc1)C1CC1` were, in that order, -5% and 1.01.
In the case of `Cc1cc2c(=O)n(CC(=O)Nc3ccc(F)cc3)c3cccnc3n2n1`, the “% Inhibition” value is -3% and the Z score is reported as 0.47.
Take `CCOC(=O)N1CCN(C(=O)c2c(COC)n(CCc3ccccc3Cl)c(C)cc2=O)CC1`: the “% Inhibition” value was 5% and the Z score was -0.75.
Turning to `O=C(Cc1ccc(NS(=O)(=O)Cc2ccccc2Cl)cc1)N1CCOCC1`, the “% Inhibition” value is listed as -1% and the Z score turned out to be 0.23.
On to `NS(=O)(=O)C[C@H]1CCN(C(=O)c2ccc3c(c2)OCCO3)C1`, for which the “% Inhibition” value is given as -12% and the Z score was 2.27.
As for `CS(=O)(=O)N1C[C@H]2CC[C@@H](C1)N(C/C=C/c1ccc(F)cc1)C2`, the “% Inhibition” value is on record as -20% and the Z score came to 1.88.
With `O=C(NCc1cc(F)cc(Br)c1)NC1(CCO)CCC1`, the “% Inhibition” value is listed as -3% and the Z score is recorded as 0.33.
